Assay results as given in the supplement of paper PMC3334620.
Over roughly 33,000 sequences, “E-score (-0.5 to 0.5)” has its median near -0.036; the highest 2% begin near 0.37. The list shows a part of the results.

Each sequence was assayed against T1, Yer064c (UniProt P40041) (assay: PBM E-score (8-mer binding enrichment) (E-score (-0.5 to 0.5)); higher = stronger / more preferred TF binding; most listed sequences are background and not binding sites). Details: protein concentration: 200 nM; construct: GST-full length.
T1 sequence: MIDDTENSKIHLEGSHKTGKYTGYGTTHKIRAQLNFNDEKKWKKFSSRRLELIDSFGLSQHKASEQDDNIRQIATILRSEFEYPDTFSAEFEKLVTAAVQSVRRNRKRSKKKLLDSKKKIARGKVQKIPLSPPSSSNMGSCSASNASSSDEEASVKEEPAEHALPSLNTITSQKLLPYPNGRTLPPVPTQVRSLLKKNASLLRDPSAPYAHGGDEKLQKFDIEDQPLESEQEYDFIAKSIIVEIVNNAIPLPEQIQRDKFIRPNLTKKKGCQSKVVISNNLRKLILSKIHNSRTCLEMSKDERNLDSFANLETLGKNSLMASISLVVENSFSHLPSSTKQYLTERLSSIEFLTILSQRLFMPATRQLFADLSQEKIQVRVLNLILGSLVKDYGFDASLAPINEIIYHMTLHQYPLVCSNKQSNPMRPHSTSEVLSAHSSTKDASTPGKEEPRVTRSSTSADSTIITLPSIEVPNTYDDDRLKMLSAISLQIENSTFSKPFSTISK
Outline: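 Masliner-normalised scans of fluorescent anti-GST signal were the basis for scoring. That signal came from GST-tagged yeast transcription factors applied at about 100-200 nM to double-stranded universal all-10-mer Agilent arrays on fresh or once-stripped slides. Each ungapped eight-base word, pooled with its reverse complement, received an E-score from the Universal PBM Analysis Suite.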

| Sequence | PBM E-score |
| --- | --- |
| AACTTGAT | 0.149 |
| GGACGTAC | -0.0832 |
| AGTAGTAT | 0.0828 |
| ACAGCAGC | -0.0564 |
| CACTCCAG | 0.101 |
| CAGCTGAG | 0.0228 |
| CGTCCTAC | -0.163 |
| TCCTTACA | -0.0826 |
| AGTTACAA | 0.18 |
| ATAGTAAT | 0.291 |
| AGACCAGG | -0.166 |
| CCGTACAC | 0.00575 |
| CAAGGGGG | -0.331 |
| ATCTGGAA | -0.103 |
| AAGTGTGA | 0.137 |
| GCCACGCA | -0.212 |
| ATGACGTG | -0.239 |
| ACGAAGCC | -0.0316 |
| GACCACGA | -0.0848 |
| CACGCGTA | 0.0295 |
| AATGCTGC | -0.239 |
| CTGTACCA | -0.0997 |
| ACACTAAG | 0.131 |
| TCTATGCA | 0.0844 |
| GGAAAAAC | -0.169 |

| Sequence | PBM E-score |
| --- | --- |
| GTGCTAGA | -0.123 |
| GCAGTGAC | 0.232 |
| GGCATTCA | -0.228 |
| GACGGCGC | -0.218 |
| AACTAGAT | -0.0283 |
| AGCGCAAA | -0.142 |
| GAACATCC | -0.125 |
| CCCATACC | -0.0853 |
| TACAGGTA | -0.0802 |
| CTGTCTCC | 0.046 |
| ACGCTCCT | -0.212 |
| AAATCACT | 0.327 |
| AGCGCATC | -0.0879 |
| TGCTGAAA | -0.0596 |
| ATGCCATG | -0.0903 |
| CATCGCGG | -0.174 |
| AGGAATAT | 0.0472 |
| CGAGACGA | -0.0652 |
| GGCGCCCC | -0.259 |
| ATTAGGCA | -0.0366 |
| AAACCGGC | -0.0714 |
| GCTTGCAC | -0.15 |
| CCTATCAC | -0.173 |
| GTGTATTA | 0.136 |
| GGGAGAAA | -0.185 |

| Sequence | PBM E-score |
| --- | --- |
| CCGGCTAG | -0.332 |
| GGCCACCC | -0.0842 |
| CAGGTTGC | -0.179 |
| AGTGCACT | 0.0871 |
| AGGCTGCA | 0.0282 |
| ACTGAACT | -0.0143 |
| GACCTATA | 0.134 |
| GGACAGCC | -0.269 |
| GGCCGACA | -0.0946 |
| CGCAGCCC | -0.245 |
| AACCCTCA | -0.102 |
| GCGCTAGC | -0.192 |
| AGCGGCCG | -0.199 |
| CGGCTTCC | -0.29 |
| CGGCTGAA | 0.0435 |
| ATCAATCA | 0.381 |
| CACATTGG | -0.158 |
| CCTTCGGC | -0.197 |
| GCAAGACC | -0.339 |
| CCGTGTGC | -0.134 |
| ATCTGGAG | -0.114 |
| TAGGTTGA | 0.116 |
| ACTAGTGG | 0.0661 |
| AGTCTGTC | 0.191 |
| AGGTGTGA | 0.039 |

| Sequence | PBM E-score |
| --- | --- |
| AGAGACGG | -0.0817 |
| ATAGCAAC | 0.122 |
| AAGAGGGA | -0.188 |
| TCGCCGCA | -0.142 |
| CGACGCAA | -0.207 |
| ACAGAGAG | -0.127 |
| TAATACCA | 0.0825 |
| AGCGTCGG | 0.0438 |
| AACTTCTA | 0.0503 |
| CCAGTTTA | -0.135 |
| ACGAGACC | -0.0683 |
| CGCAGGCG | -0.083 |
| CCTCGTAA | -0.12 |
| AGCGATAG | -0.1 |
| CCATGTTA | 0.0639 |
| TAGGCGAA | -0.0147 |
| AGGACCTA | 0.101 |
| AACAACGA | 0.124 |
| CAGGGCGG | -0.234 |
| AATGACAA | 0.00147 |
| GCGGTCAC | -0.079 |
| AGGTCACA | 0.1 |
| AACCGCTA | -0.169 |
| CGTCAAAC | -0.149 |
| ATCAATAA | 0.163 |

| Sequence | PBM E-score |
| --- | --- |
| AAGTCGAA | 0.0624 |
| CGCTGCGC | -0.135 |
| CTTTGAAA | 0.116 |
| TCAGTCCA | 0.0317 |
| GCTGTCCA | -0.0439 |
| AAGCTAGT | 0.0861 |
| AACCAATT | -0.0652 |
| CCAGTTCC | -0.339 |
| TATAGCCA | 0.125 |
| CGGCAGTC | 0.221 |
| CGGCGGCA | -0.238 |
| TCCGGCCA | -0.292 |
| ATCTCGCC | -0.0358 |
| CGCATCAC | -0.126 |
| ATACGTTG | -0.205 |
| TAATTTGA | 0.119 |
| CATGTCGA | -0.00928 |
| AAAGATCT | -0.103 |
| TACTTATA | 0.116 |
| AAACCTTT | -0.0723 |
| AGCCAACG | -0.103 |
| CCTCGAGC | -0.148 |
| CAGAACAA | 0.0283 |
| GACATATC | 0.00089 |
| AGCGAACT | 0.18 |

| Sequence | PBM E-score |
| --- | --- |
| CCCAGGAG | -0.148 |
| CCAGGGCA | -0.227 |
| AGTACTTA | 0.162 |
| ATAAGGTC | 0.0324 |
| ACGGGATA | -0.161 |
| GCAACTTA | -0.0742 |
| CCCTCGAA | -0.175 |
| CATAGCCG | 0.0677 |
| ACCACTAC | -0.102 |
| GTGCTAAA | 0.0596 |
| TCGGAAAA | 0.0742 |
| CGTGCACA | 0.0424 |
| AGTTCGAC | -0.0305 |
| AATGACCA | 0.0838 |
| ATGCATTC | -0.139 |
| GCTCCGCA | -0.00188 |
| CCATACCG | -0.0496 |
| ATAGGGCA | -0.155 |
| AACAGCAT | -0.0448 |
| GACCGTCA | -0.169 |
| GCATGACC | 0.0217 |
| AGTACCTA | 0.101 |
| TATGAATA | 0.0885 |
| CACTTTCA | -0.00334 |
| AGTTAACA | 0.0587 |

| Sequence | PBM E-score |
| --- | --- |
| GTAAACAC | 0.00508 |
| GCCGGGAC | -0.188 |
| GACGCCGA | -0.0356 |
| CCACCAGC | -0.0281 |
| AGGAGCGG | -0.264 |
| AAGGCCAC | -0.21 |
| GGAGGTAC | -0.0956 |
| ATGCCACA | -0.163 |
| CCCCATTC | -0.206 |
| TAATCATA | 0.457 |
| CGAGTTCC | 0.117 |
| GAAACTGC | -0.334 |
| CGAATTAC | -0.164 |
| GCCCGCTA | -0.352 |
| TGATGACA | -0.146 |
| TCCCGCGA | 0.113 |
| CAAAACTC | -0.0536 |
| GGCGAACC | -0.174 |
| CGCCGTAG | -0.0211 |
| GAGATATC | -0.21 |
| ACTTATGC | 0.199 |
| AGAGAGCA | -0.079 |
| CGATACAA | -0.0871 |
| TTAACAAA | 0.199 |
| ACCAATAC | -0.0932 |

| Sequence | PBM E-score |
| --- | --- |
| GCGTCGCA | 0.0193 |
| CACAAATA | 0.114 |
| CGGGTCCA | -0.0875 |
| CCGCGCGG | -0.0114 |
| AGGGTGCG | -0.267 |
| ACAATACA | -0.119 |
| CAGGCGCC | -0.142 |
| AAGCGCAC | -0.23 |
| GCCATAAC | -0.0271 |
| CTTGATAC | 0.0819 |
| GGACACCA | -0.262 |
| GAGCACTC | -0.182 |
| ATGTTAAG | -0.112 |
| GGTCTGGA | -0.274 |
| GAAATCCC | -0.319 |
| ACGAGCTA | -0.117 |
| CCTAAAAC | -0.101 |
| CTTCCACA | -0.1 |
| AGGATTAC | -0.0301 |
| ATCGCCAC | -0.132 |
| TACTCATA | 0.343 |
| AACGAAAC | -0.0959 |
| GGCGTCAC | -0.286 |
| GGGCCCTA | -0.217 |
| AAACTTTG | 0.142 |

| Sequence | PBM E-score |
| --- | --- |
| AACATCTC | -0.143 |
| GTAACCTA | -0.139 |
| GCTCCAAC | -0.164 |
| ACGATCAG | 0.00978 |
| TGAAAGCA | -0.153 |
| CTGAGCCA | 0.31 |
| CCCAGAAG | -0.0291 |
| AGCCTTGG | -0.103 |
| CAACCAGA | 0.0713 |
| AGAATACT | -0.0191 |
| AACTAGTA | 0.149 |
| AAGTGTCC | -0.174 |
| AACGAGTT | 0.0273 |
| CAACTAAA | 0.12 |
| GCACTCTA | -0.172 |
| ATGTATGA | 0.241 |
| GCCATCAC | -0.0511 |
| CCCATTGA | -0.0752 |
| CGAGGCTA | -0.0432 |
